# From PubChem BioAssay (NCATS)
# This list was built around the results that the source calls inconclusive (neither active nor inactive); the mix of calls is not that of the screen. Potencies of inconclusive entries are left out as doubtful fits. Calls of active or inactive are those of the source. Calls follow the shape of the dose curve; as a rule, active = well fitted curve in the direction sought with a large enough effect; inconclusive = small, poorly fitted or top-dose-only effect, or another doubt; inactive = no such curve, though single readings can be large; an effect the other way counts as inactive or inconclusive. Non-standard residues stand in square brackets, D forms with d. Residues, ends and D or L forms follow the SMILES beside them.
# What was measured:
# [1] = BET inhibitor-based combinations targeting novel dependencies in MECOM-rearranged (r) AML: MV-4-11 cell line (AID 2202233); conditions: MV-4-11 AML viability, CellTiter-Glo luminescence, 48 h; viability, % of control: at 46 µM (top of the series) unless noted; also: nearly all actives have a fitted effect of over 45% in size;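 as to viability, % of control: plate controls were DMSO for no effect and blank wells for full effect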
# Procedure, shortened: (§1)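 Cells were plated at 500 per well and exposed to each drug across an 11-point dose range for 48 hr at standard incubator conditions. Viability was read by CellTiter-Glo luminescence, and activity was expressed as AUC and per-cell-line Z-transformed AUC.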
# [2] = BET inhibitor-based combinations targeting novel dependencies in MECOM-rearranged (r) AML: AML-191 cell line (AID 2202236; also: nearly all actives have a fitted effect of over 35% in size;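 as to viability (% of control): plate controls were vehicle wells for no effect and wells without cells for full effect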)
# Procedure, shortened: (§2)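 500 cells/well; 11-pt dose curve; 48 h, standard incubator; CellTiter-Glo luminescence after 15 min RT; DMSO/empty-well normalization; AUC plus Z-AUC (mean-centered within each line).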
# [3] = BET inhibitor-based combinations targeting novel dependencies in MECOM-rearranged (r) AML: HNT-34 cell line (AID 2202234); also: nearly all actives have a fitted effect of over 35% in size;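 as to viability (% of control): plate controls were vehicle wells for no effect and cell-free wells for full effect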
# Procedure, shortened: as §1
# [4] = BET inhibitor-based combinations targeting novel dependencies in MECOM-rearranged (r) AML: AML-194 cell line (AID 2202237; also: nearly all actives have a fitted effect of over 40% in size;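 as to viability (% of control): plate controls were vehicle wells for no effect and wells without cells for full effect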)
# Procedure, shortened: as §2
# [5] = BET inhibitor-based combinations targeting novel dependencies in MECOM-rearranged (r) AML: UCSD-AML1 cell line (AID 2202235); conditions: UCSD-AML1 AML cells viability, CellTiter-Glo, 48 h; viability (% of control): at 46 µM (top of the series); also: nearly all actives have a fitted effect of over 40% in size;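 as to viability (% of control): plate controls were DMSO vehicle wells for no effect and blank wells for full effect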
# Procedure, shortened: as §1
# Potency is read from the fitted curve at half-maximal effect; tags tell the direction and shape of the fitted curve.
smiles,measurement,setting,value
CCC(C)SSc1ncc[nH]1 (configuration not stated),Potency,[1],active: 2.63 µM
same,Potency,[2],active: 5.25 µM
Cc1ccc(C(=O)Nc2ccc(CN3CCN(C)CC3)c(C(F)(F)F)c2)cc1C#Cc1cnc2[nH]ncc2c1,Potency,[3],"inconclusive [inhibitor, full curve]"
Cc1cnc(Nc2ccc(N3CCN(C)CC3)cc2)nc1Nc1cccc(S(=O)(=O)NC(C)(C)C)c1,Potency,[3],active: 0.833 µM
Cc1cc(Nc2cc(N3CCN(C)CC3)nc(/C=C/c3ccccc3)n2)n[nH]1,Potency,[3],active: 0.525 µM
CCC(C)n1ncn(-c2ccc(N3CCN(c4ccc(OC[C@H]5CO[C@](Cn6cncn6)(c6ccc(Cl)cc6Cl)O5)cc4)CC3)cc2)c1=O (some centres not stated),Potency,[1],"inconclusive [inhibitor, partial curve]"
same,Potency,[2],active: 7.23 µM
CN(C)CCNC(=O)NC[C@H]1CC[C@@H]2[C@H](O1)c1cc(C(F)(F)F)ccc1N[C@H]2c1ccccc1,Potency,[3],"inconclusive [inhibitor, full curve]"
O=C(O)CCCCCC(=O)NN=C1CCCC1,Potency,[3],inactive
Cc1cc(C)c(S(=O)(=O)N(CCc2cccc(Br)c2)Cc2ccc(-c3cccc(S(C)(=O)=O)c3)cc2)c(C)c1,Potency,[3],"inconclusive [inhibitor, partial curve, poor fit]"
COc1cc(=C2C=c3ccccc3=N2)[nH]/c1=C/c1[nH]c(C)cc1C,Potency,[3],active: 3.72 µM
CN(C)C/C=C/C(=O)Nc1ccc(C(=O)N2CCC[C@@H](Nc3ncc(Cl)c(-c4c[nH]c5ccccc45)n3)C2)cc1,Potency,[3],active: 0.235 µM
CCn1cc(C(=O)O)c(=O)c2cc(F)c(N3CCNC(C)C3)c(F)c21 (configuration not stated),Potency,[3],inactive
CCC[C@@H]1C[C@@H](C(=O)N[C@@H]([C@H]2O[C@H](SC)[C@H](O)[C@@H](O)[C@H]2O)[C@H](C)Cl)N(C)C1,Potency,[1],inactive
same,Potency,[2],inactive
COC(=O)C[C@](O)(CCCC(C)(C)O)C(=O)O[C@@H]1C(OC)=C[C@]23CCCN2CCc2cc4c(cc2[C@H]13)OCO4,Potency,[1],"inconclusive [inhibitor, full curve]"
same,Potency,[4],"inconclusive [inhibitor, full curve, poor fit]"
CCc1ccc(C(=O)Nc2cc(CN3CCN(C)CC3)cc(C(F)(F)F)c2)cc1C#Cc1cnc2ccnn2c1,Potency,[3],active: 1.86 µM
COc1ccc(-c2oc3c(CC=C(C)C)c(O)cc(O)c3c(=O)c2O)cc1,Potency,[3],inactive
[2H]c1nc(C)nc([2H])c1-c1cc(NC[C@@H](C)c2cccc3c(C(=O)NC)ccnc23)ncn1,outcome,[3],inactive
CCNC(=O)c1cc2c(-c3cc(OCCN4CCCC4)c(Cl)cc3Cl)nc(N)nc2s1,Potency,[1],active: 0.363 µM
same,Potency,[4],"inconclusive [inhibitor, full curve]"
CC(C(C)N1CC(=O)NC(=O)C1)N1CC(=O)NC(=O)C1 (configuration not stated),Potency,[3],"inconclusive [inhibitor, partial curve, poor fit]"
same,Potency,[5],"inconclusive [inhibitor, partial curve, poor fit]"
COC(=O)Nc1nc2ccc(S(=O)c3ccccc3)cc2[nH]1 (configuration not stated),Potency,[3],"inconclusive [inhibitor, full curve]"
same,Potency,[5],active: 7.42 µM
Nc1nc(F)nc2c1ncn2C1OC(COP(=O)(O)O)C(O)C1O (configuration not stated),Potency,[3],active: 16.6 µM
same,Potency,[5],active: 2.63 µM
CCCOc1ccc(C(=O)OCCN(CC)CC)cc1N,Potency,[3],inactive
same,Potency,[5],inactive
COc1cc(N2CCN(C)CC2)ccc1Nc1ncc2c(n1)N(C)c1ccccc1C(=O)N2C,Potency,[3],active: 16.6 µM
same,Potency,[5],"inconclusive [inhibitor, partial curve, poor fit]"
CNCCn1c(=O)c2cc(OC)c(OC)cc2c2cnc3cc4c(cc3c21)OCO4,Potency,[3],active: 0.0121 µM
CC(C)C(=O)OCC(=O)[C@@]12O[C@H](C3CCCCC3)O[C@@H]1C[C@H]1[C@@H]3CCC4=CC(=O)C=C[C@]4(C)[C@H]3[C@@H](O)C[C@@]12C,Potency,[3],active: 20.9 µM
same,Potency,[5],"inconclusive [inhibitor, single point]"
OCc1ccccc1O[C@@H]1O[C@H](CO)[C@@H](O)[C@H](O)[C@H]1O,Potency,[3],inactive
same,Potency,[5],inactive
COc1ccc(C=Cc2cc(OC)c(OC)c(OC)c2)cc1NC(=O)[C@H](N)CO,Potency,[3],"inconclusive [inhibitor, full curve]"
same,Potency,[5],active: 0.372 µM
CN(C)CCN1C(=O)c2cccc3cc(NC(N)=O)cc(c23)C1=O,Potency,[3],active: 8.33 µM
COc1cc(C(=O)N2CCC(N3CCN(C)CC3)CC2)ccc1Nc1ncc2c(n1)N(C)c1ccccc1C(=O)N2C,Potency,[3],"inconclusive [inhibitor, partial curve]"
same,Potency,[5],active: 4.68 µM
same,Potency,[2],active: 9.34 µM
O=C(O)C(=O)Nc1cccc(-c2nn[nH]n2)c1,Potency,[3],inactive
same,Potency,[5],inactive
CCCCNc1cc(C(=O)O)cc(S(N)(=O)=O)c1Oc1ccccc1,Potency,[3],inactive
same,Potency,[5],inactive
COc1cc2c(cc1-c1c(C)noc1C)ncc1[nH]c(=O)n([C@H](C)c3ccccn3)c12,Potency,[3],"inconclusive [inhibitor, full curve]"
same,Potency,[5],"inconclusive [inhibitor, full curve]"
same,Potency,[2],"inconclusive [inhibitor, full curve]"
same,Potency,[4],"inconclusive [inhibitor, full curve]"
NC(=O)c1ccc2nc(-c3ccc(C4(N)CCC4)cc3)c(-c3ccccc3)n2n1,Potency,[3],"inconclusive [inhibitor, partial curve]"
same,Potency,[5],active: 3.72 µM
same,Potency,[2],"inconclusive [inhibitor, partial curve]"
same,Potency,[4],"inconclusive [inhibitor, single point]"
CN[C@@H](C)C(=O)N[C@@H]1C(=O)N(Cc2c(C)ccc3ccccc23)c2ccc(C#N)cc2N(C(C)=O)[C@H]1C,Potency,[3],"inconclusive [inhibitor, partial curve, poor fit]"
same,Potency,[5],inactive
O=c1cc(O)c(Cl)c[nH]1,Potency,[3],inactive
same,Potency,[5],inactive
same,Potency,[2],inactive
Cc1ccc2c(=O)c3cccc(CC(=O)O)c3oc2c1C,Potency,[3],inactive
NC(=O)C1=C(O)[C@@]2(O)C(=O)C3=C(O)c4c(O)cccc4C[C@H]3C[C@H]2CC1=O,Potency,[3],active: 8.33 µM
same,Potency,[5],"inconclusive [inhibitor, single point]"
same,Potency,[2],active: 7.42 µM
CC#CC(=O)N1CC[C@@H](n2c(=O)n(-c3ccc(Oc4ccccc4)cc3)c3c(N)ncnc32)C1,Potency,[3],"inconclusive [inhibitor, partial curve]"
same,Potency,[5],inactive
same,Potency,[2],"inconclusive [inhibitor, partial curve, poor fit]"
same,Potency,[4],inactive
NC(=O)/C(=C/n1cnc(-c2cc(C(F)(F)F)cc(C(F)(F)F)c2)n1)c1cncnc1,Potency,[3],active: 0.742 µM
same,Potency,[5],active: 0.118 µM
same,Potency,[2],active: 0.263 µM
CC1(C)S[C@H]2[C@H](NC(=O)[C@@H](N)c3ccc(O)cc3)C(=O)N2[C@H]1C(=O)O,Potency,[3],inactive
same,Potency,[5],inactive
O=C(O)c1cccnc1,Potency,[3],inactive
same,Potency,[5],"inconclusive [inhibitor, single point]"
NS(=O)(=O)NCCNc1nonc1C(=Nc1ccc(F)c(Br)c1)NO,Potency,[3],inactive
same,Potency,[5],inactive
c1ccc(CNc2nc(NCc3ccccc3)c3ccccc3n2)cc1,Potency,[3],active: 9.34 µM
same,Potency,[5],active: 8.33 µM
C[C@@H]1CC(=O)Nc2cccc(-c3ccc4c(c3)c(-c3cnn(C)c3)nn4C)c2N1,Potency,[3],"inconclusive [inhibitor, partial curve]"
same,Potency,[5],active: 2.63 µM
same,Potency,[2],"inconclusive [inhibitor, partial curve]"
N[C@@H]1CONC1=O,Potency,[3],inactive
same,Potency,[5],inactive
O=P(O)(O)C(O)(Cn1ccnc1)P(=O)(O)O,viability (% of control),[3],inactive: 108% [at 5.12 µM]
same,viability (% of control),[5],inactive: 117% [at 5.12 µM]
Cc1ccc(Sc2ccccc2N2CCNCC2)c(C)c1,Potency,[3],active: 16.6 µM
same,Potency,[5],active: 16.6 µM
same,Potency,[2],active: 18.6 µM
CC(/C=C1\SC(=S)N(CC(=O)O)C1=O)=C\c1ccccc1,Potency,[3],inactive
same,Potency,[5],inactive
NC(=NCCCCCCN=C(N)N=C(N)Nc1ccc(Cl)cc1)N=C(N)Nc1ccc(Cl)cc1,Potency,[3],"inconclusive [inhibitor, single point]"
same,Potency,[5],"inconclusive [inhibitor, single point]"
same,Potency,[2],"inconclusive [inhibitor, single point]"
same,Potency,[4],"inconclusive [inhibitor, single point]"
C[C@@H](Oc1cc(C(=O)Nc2ccc(C(=O)N3CCN(C)CC3)cc2)nnc1N)c1c(Cl)ccc(F)c1Cl,Potency,[3],active: 1.18 µM
same,Potency,[5],active: 1.18 µM
same,Potency,[2],active: 0.934 µM
CC(C)C[C@@H]1NC(=O)[C@@H](C(C)C)NC(=O)[C@@H]2CCCN2C(=O)[C@@H](CC(=O)O)NC(=O)[C@@H](Cc2c[nH]c3ccccc23)NC1=O (cyclo(L[dW][dD]P[dV])),Potency,[3],inactive
same,Potency,[5],inactive
CC(C)=CCC/C(C)=C/CC/C(C)=C/CSc1ccccc1C(=O)O,Potency,[3],"inconclusive [inhibitor, partial curve, poor fit]"
same,Potency,[5],inactive
same,Potency,[2],inactive
Cc1c(C(=O)Nc2ccc(Oc3ccnc4[nH]cc(-c5ccccc5)c34)c(F)c2)c(=O)n(-c2ccc(F)cc2)n1C,Potency,[3],"inconclusive [inhibitor, partial curve]"
same,Potency,[5],"inconclusive [inhibitor, partial curve, poor fit]"
NC(=O)c1ccc(-c2nc(-c3ccc4c(c3)OCO4)c(-c3ccccn3)[nH]2)cc1,Potency,[3],inactive
same,Potency,[5],inactive
